Experimental findings from the supplement of paper PMC7726561 are described below.

Whole data set: some 1,400 sequences, median “thermal melting temperature (Tm) of peptide-HLA complex” near 60, cut for the lowest 2% near 45. Some of the results follow.
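Also: cell lysates heated 10 min at 37–73 °C, remaining pHLA pulled down with pan-class I antibody, peptides quantified by DIA-MS versus 37 °C, Tm where half the complex is lost.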

This experiment has as its target HLA-B*07:02. The experiment is described as follows: thermal melting temperature (Tm) of peptide-HLA complex; higher = more thermostable pHLA complex. The note with it: C1R-B*07:02.
Sequence FPRITSQYL came in with a thermal melting temperature of 62.3 °C. On to VPRGPIPSEL, for which the thermal melting temperature worked out at 62 °C.

Sequence HPRPPIPLSL gave a thermal melting temperature of 57.1 °C. Consider MPKKDARTL, for which the thermal melting temperature is 58.4 °C.

Turning to RPRGFAYVQF, the thermal melting temperature came out at 50.1 °C. The value for APVLPHTAV was 59.3 °C; that for APAQARPTVF was 58.2 °C; that for KPNDSRALQL was 59.1 °C. Sequence SPRSPISPEL registered a thermal melting temperature of 59.5 °C. SPGLKSVL displayed a thermal melting temperature of 59.4 °C.

Consider IPRVPSLSV, for which the thermal melting temperature is 65 °C. For the sequence VPRPVLRAL, the thermal melting temperature was determined as 61 °C. Sequence MVASKRKEL yielded a thermal melting temperature of 58.7 °C. The value for YPADKISIL was 57.4 °C; that for NPRTKALVL was 57.3 °C. On to VIRELSRAL, for which the thermal melting temperature came out at 45.3 °C. Regarding RPQLPQVL, the thermal melting temperature turned out to be 60.7 °C. In turn, VPSWSKVNQGL had a thermal melting temperature of 61.2 °C. Take RPYMDAVVSL: the thermal melting temperature is 59.6 °C. Turning to FPIPAAEVDRL, the thermal melting temperature is 62.2 °C.

As to GVRPPAPSL, the thermal melting temperature was found to be 58.7 °C. Consider LPRRPNDIYV, for which the thermal melting temperature amounted to 60.7 °C.

Sequence YPYPYPHTL yielded a thermal melting temperature of 60.9 °C. Regarding LPKKNGLYL, the thermal melting temperature was found to be 58.8 °C. The figure for LPSLRILYM is 61.4 °C. In the case of EPRPGAGSL, the thermal melting temperature came to 53.3 °C.

TPLLMQALPM: the thermal melting temperature is 50.7 °C. LPRPVPQNL returned a thermal melting temperature of 61.4 °C. Sequence QPLAPSGLTL showed a thermal melting temperature of 62.7 °C. The value for KPMPSLPQL was 44.9 °C; that for LPAPKWTEL was 62.9 °C. Regarding APHLVGPHL, the thermal melting temperature came to 60.3 °C. The figure for APKPEPVPV is 54.2 °C.

Take IPREVSETL: the thermal melting temperature is 61.9 °C. With APRWGNPRAL, the thermal melting temperature stood at 59.2 °C. Consider RVREITENL, for which the thermal melting temperature amounted to 57 °C.
